According to the supplement of paper PMC4967469:
The IC50 comes from the fitted curve, where viability falls to half of the control; a fit beyond the top or the lowest dose is shown as a bound at that dose. AUC is the area under the same curve over the 256-fold range up to the top dose, as a fraction: 1 means no effect, lower means more sensitive. An inferred top dose comes from the curve model; the source does not state it. For some of these results: Drugs with an entry number were screened twice under separate entries, and the two screens often disagree.

Key:
Assay in all cases: Viability of human cancer cell lines after 72 h of drug (GDSC screen)
Shikonin = compound: CC(C)=CC[C@@H](O)C1=CC(=O)c2c(O)ccc(O)c2C1=O [Shikonin]; conditions: top dose 16 µM; top dose inferred
Method: (§1)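 Human cancer cell lines in 384-well plates, medium with 10% serum, drug for 72 h over a 256-fold dose range (nine 2-fold or five 4-fold steps up to the top dose). Adherent lines were fixed and stained with the nucleic acid dye Syto60, suspension lines read with resazurin; signal relative to control wells, capped at 0 and 100%. One two-parameter sigmoid per drug and line, fitted in a mixed model over all curves with the slope shared within a line.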

CGP-082996 (CINK4) = compound: CCNc1cc(NC2CCC(O)CC2)nc(Nc2ccc3c(ccn3Cc3ccccc3)c2)n1 [CGP-082996 (CINK4)]; conditions: top dose 5.12 µM; top dose inferred
Method: as §1

Wee1 inhibitor 681640 = compound: O=C1NC(=O)c2c1c(-c1ccccc1Cl)cc1[nH]c3ccc(O)cc3c21 [Wee1 inhibitor 681640]; conditions: top dose 2 µM; top dose inferred
Method: as §1

VX-702 = compound: NC(=O)c1ccc(N(C(N)=O)c2c(F)cccc2F)nc1-c1ccc(F)cc1F [VX-702]; conditions: top dose 2 µM; top dose inferred
Method: as §1

XMD8-85 = compound: COc1cc(N2CCN(C)CC2)ccc1Nc1ncc2c(n1)N(C)c1ccccc1C(=O)N2C [XMD8-85]; conditions: top dose 8 µM; top dose inferred
Method: as §1

A-770041 = compound: COc1cc(-c2nn([C@H]3CC[C@H](N4CCN(C(C)=O)CC4)CC3)c3ncnc(N)c23)ccc1NC(=O)c1cc2ccccc2n1C [A-770041]; conditions: top dose 5.12 µM; top dose inferred
Method: as §1

SB-525334 = compound: Cc1cccc(-c2[nH]c(C(C)(C)C)nc2-c2ccc3nccnc3c2)n1 [SB-525334]; conditions: top dose 20 µM; top dose inferred
Method: as §1

Olaparib = compound: O=C(c1cc(Cc2n[nH]c(=O)c3ccccc23)ccc1F)N1CCN(C(=O)C2CC2)CC1 [Olaparib]
Method: as §1

BMS-536924 = compound: Cc1cc(N2CCOCC2)cc2[nH]c(-c3c(NC[C@@H](O)c4cccc(Cl)c4)cc[nH]c3=O)nc12 [BMS-536924]
Method: as §1

[1] = top dose 5 µM, screen: GDSC drug entry 1017, top dose inferred
[2] = top dose 5.12 µM, screen: GDSC drug entry 62
[3] = top dose 10 µM, screen: GDSC drug entry 1495
[4] = top dose 4 µM, screen: GDSC drug entry 1091, top dose inferred

Row | Cell Line | AUC (Shikonin) | IC50 (Shikonin) [µM] | AUC (CGP-082996 (CINK4)) | IC50 (CGP-082996 (CINK4)) [µM] | AUC (Wee1 inhibitor 681640) | IC50 (Wee1 inhibitor 681640) [µM] | AUC (VX-702) | IC50 (VX-702) [µM] | AUC (XMD8-85) | IC50 (XMD8-85) [µM] | AUC (A-770041) | IC50 (A-770041) [µM] | AUC (SB-525334) | IC50 (SB-525334) [µM] | AUC (Olaparib; [1]) | IC50 (Olaparib; [1]) [µM] | AUC (BMS-536924; [2]) | IC50 (BMS-536924; [2]) [µM] | AUC (Olaparib; [3]) | IC50 (Olaparib; [3]) [µM] | AUC (BMS-536924; [4]) | IC50 (BMS-536924; [4]) [µM]
1 | MV-4-11 (leukaemia, suspension) | 0.307 | 0.322 | 0.848 | 2.82 | 0.884 | 1.5 | 0.98 | > 2 | 0.701 | 1.63 | 0.871 | 3.41 | 0.99 | > 20 | – | – | – | – | – | – | – | –
2 | MY-M12 (leukaemia, suspension) | 0.342 | 0.342 | 0.931 | > 5.12 | 0.973 | > 2 | 0.979 | > 2 | 0.83 | 5.95 | 0.461 | 0.247 | 0.87 | > 20 | 0.873 | > 5 | – | – | – | – | – | –
3 | NCI-H748 (small cell lung carcinoma, suspension) | 0.54 | 1.33 | 0.943 | > 5.12 | – | – | – | – | 0.872 | > 8 | 0.957 | > 5.12 | 0.946 | > 20 | – | – | 0.946 | > 5.12 | – | – | – | –
4 | NCI-H1581 (large cell lung carcinoma, semi-adherent) | 0.715 | 3.82 | 0.984 | > 5.12 | – | – | 0.99 | > 2 | 0.987 | > 8 | 0.99 | > 5.12 | 0.984 | > 20 | 0.99 | > 5 | 0.926 | > 5.12 | 0.929 | > 10 | 0.872 | 3.28
5 | NCI-H1963 (small cell lung carcinoma, suspension) | 0.212 | 0.165 | 0.977 | > 5.12 | – | – | 0.991 | > 2 | 0.966 | > 8 | 0.965 | > 5.12 | 0.969 | > 20 | 0.991 | > 5 | 0.982 | > 5.12 | – | – | – | –
6 | NCI-H2171 (small cell lung carcinoma, suspension) | 0.442 | 0.709 | 0.96 | > 5.12 | – | – | – | – | 0.851 | 4.91 | 0.99 | > 5.12 | 0.948 | > 20 | – | – | 0.979 | > 5.12 | – | – | – | –
7 | NCI-H2196 (small cell lung carcinoma, adherent) | 0.475 | 0.854 | 0.97 | > 5.12 | – | – | – | – | 0.977 | > 8 | 0.973 | > 5.12 | 0.848 | 16 | – | – | 0.947 | > 5.12 | – | – | – | –
8 | NU-DUL-1 (B-cell lymphoma, suspension) | 0.243 | 0.219 | 0.945 | > 5.12 | 0.979 | > 2 | 0.99 | > 2 | 0.842 | 4.09 | 0.293 | 0.0957 | 0.962 | > 20 | 0.961 | > 5 | 0.9 | 4.26 | 0.99 | > 10 | 0.992 | > 4
